# PubChem BioAssay AID686979 (National Center for Advancing Translational Sciences (NCATS), 2013)
# Where “and” joins values, the source holds several entries; their conditions need not be identical. Equal values may be shown once. Among all 420,000 compounds or so, about 50,000 (12%) were called active. The inconclusive results got no clear call from the source; some entries with a clear call stand among them for comparison. Calls come from the whole dose curve; as a rule, active = well fitted inhibition curve with a large enough effect; inconclusive = small, poorly fitted or top-dose-only effect; inactive = flat fitted curve, though single readings scatter. A potency beside an inconclusive call is a rough fit, not a confirmed value.
# Assay: qHTS for Inhibitors of human tyrosyl-DNA phosphodiesterase 1 (TDP1): qHTS in cells in presence of CPT; note: nearly all actives have a fitted effect of over 55% in size
# Conditions: chicken DT40 Tdp1-/-;hTDP1 cells + 20 nM CPT, ATP luminescence, 48 h; activity change, negative = growth inhibition: at 46.2 µM (top of the series) unless noted
# Outline: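 Chicken DT40 Tdp1-/- cells complemented with human TDP1, 400 cells/well, exposed to compounds plus 20 nM camptothecin for at least 48 h at 37 C; viability read as ATP content by CellTiter-Glo luminescence.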
# % is set by controls: 0 for no effect and ±100 for the full control effect; potency is the fitted concentration of half-maximal effect; tags give direction and shape of the fitted curve.
SMILES,Potency,"activity change, negative = growth inhibition"
Cc1ccc(-c2nc(CSCC(=O)NCCN3CCN(Cc4ccccc4)CC3)c(C)o2)cc1,"inconclusive: 25.9 µM [inhibitor, single point]",
O=C(NC(c1ccc(F)cc1)c1ccc2ccccc2n1)C1CCN(CCOc2ccc(Cl)cc2)CC1 (centres undefined),active: 20.6 µM,
CCC1=C(OC(=O)N(CC)CC)N2C(=O)OC(=NCCc3c[nH]c4ccccc34)[C@]2(Cc2ccccc2)[C@H]2C1=CC[C@H]1C(=O)NC(=O)[C@H]12,"inconclusive: 25.9 µM [inhibitor, single point]",
O=C(NCc1ccccc1Cl)c1cnc2sc(N3CCOCC3)nn2c1=O,,inactive: -20.9%
CN(C)C(CNC(=O)c1cccc(S(=O)(=O)Nc2ccccc2Cl)c1)c1ccco1 (centres undefined),"inconclusive: 23.1 µM [inhibitor, single point]",
COc1ccc(S(=O)(=O)N2CCC(C(N)=O)CC2)cc1C(=O)N1CCCCCC1,,inactive: 4.48%
Cc1ccc(F)c(S(=O)(=O)NC(=O)C2(C)CCN2C(=O)c2ccco2)c1 (centres undefined),"inconclusive: 6.51 µM [inhibitor, full curve, poor fit]",
O=C1CC(N2CCN(C/C=C/c3ccccc3)CC2)C(=O)N1CCc1ccccc1 (centres undefined),active: 18.4 µM,
CC(=O)OC(C(=O)Nc1nccs1)c1ccccc1 (centres undefined),"inconclusive: 5.17 µM [inhibitor, partial curve]",
Cc1cc(N/N=C\c2ccccc2)nc(-c2ccccc2O)n1,"inconclusive: 18.4 µM [inhibitor, single point]",
COc1ccc(-c2noc(-c3ccc(NCc4cccnc4)c([N+](=O)[O-])c3)n2)cc1,"inconclusive: 14.6 µM [inhibitor, single point]",
CCC(=O)N1CCc2cc(Br)cc(S(=O)(=O)CCC(=O)Nc3ccc(C)c(C)c3)c21,,inactive: 12.1%
COc1ccc(CCNC(=O)COC(=O)c2cc(OC)c(OC)cc2OC)cc1,,inactive: 0.446%
CC1(c2ccc3ccccc3c2)NC(=O)N(CC(N)=O)C1=O (centres undefined),,inactive: 2.31%
O=S(=O)(c1cccc(Cl)c1Cl)N1CCN(C(=S)NCCCN2CCOCC2)CC1,"inconclusive: 29.1 µM [inhibitor, single point]",
O=c1[nH]c(CN2CCN(S(=O)(=O)c3ccccc3C(F)(F)F)CC2)nc2sc3c(c12)CCCC3,"inconclusive: 18.4 µM [inhibitor, single point]",
O=C(CN1C(=O)S/C(=C/c2ccncc2)C1=O)N1CCOCC1,"inconclusive: 29.1 µM [inhibitor, single point]",
COc1ccc(C2=NN(C(=O)c3cccs3)C(O)(C(F)(F)F)C2)cc1 (centres undefined),"inconclusive: 16.4 µM [inhibitor, single point]",
CCC(C)(C)n1nnnc1C(c1cc2cc(C)ccc2[nH]c1=O)N1CCCC1 (centres undefined),,inactive: -12.9%
N#Cc1ccc(N=c2ssnc2Cl)cc1,active: 18.4 µM and active: 5.17 µM,
O=C(Nc1ccccc1)c1ccccc1NC(=O)C(F)(F)F,"inconclusive: 35.5 µM [inhibitor, single point]",
COc1ccc2[nH]c3c(c2c1)CC(C)NC3=O (centres undefined),"inconclusive: 5.17 µM [inhibitor, partial curve]",
COc1ccc(C2=NS(=O)(=O)N(C)C(C(=O)NCc3ccccc3)=C2)cc1OC,"inconclusive: 25.9 µM [inhibitor, single point] and inconclusive: 16.4 µM [inhibitor, single point]",

SMILES,Potency,"activity change, negative = growth inhibition"
Cc1ccc(S(=O)(=O)N2CCN(C(=O)CSc3nc4ccccc4o3)C2)cc1,"inconclusive: 25.9 µM [inhibitor, single point]",
Cc1cccc(C(=O)N[C@H](C(=O)Nc2ccc(C)c(S(=O)(=O)N(C)C)c2)C(C)C)c1,"inconclusive: 29.1 µM [inhibitor, single point]",
Cc1nc(CN2C(=O)C3(CCC3)ON=C2c2cccc(Cl)c2)cs1,"inconclusive: 9.2 µM [inhibitor, single point]",
O=c1[nH][nH]c2c1C(c1ccc(F)cc1)OC(CCc1ccccc1)C2 (centres undefined),"inconclusive: 23.1 µM [inhibitor, single point]",
COc1cccc(OC)c1C(=O)Nc1cccnc1,,inactive: -11.5%
O=C(NCc1ccco1)C12CN(Cc3ccccc3)CC1C(c1ccc([N+](=O)[O-])cc1)=NO2 (centres undefined),active: 16.4 µM,
N#CC(=C=[N-])c1nc2ccccc2nc1-[n+]1cccc(NC(=O)c2ccccc2)c1,,inactive: -25.7%
O=C(Nc1ccc(Cl)cc1)N[C@H]1CC[C@H](CCn2cc(-c3ccccc3F)nn2)O[C@@H]1CO,active: 8.2 µM,
Cc1cc(C)c(NC(=O)CSc2nc(COc3ccccc3)nc3ccccc23)c(C)c1,active: 23.1 µM,
CCn1c(=O)n(CC)c2cc(S(=O)(=O)N3CCC(c4ccccc4)CC3)ccc21,"inconclusive: 9.2 µM [inhibitor, partial curve]",
N#C/C(=C\c1ccc(F)c(Br)c1)C(=O)NC1CC1,"inconclusive: 18.4 µM [inhibitor, single point]",
COc1ccc(C2=NN(C(=O)c3cccs3)C(c3ccccc3O)C2)cc1 (centres undefined),"inconclusive: 25.9 µM [inhibitor, single point]",
CC(=O)NC(CC(=O)OCC(=O)N1CCc2ccccc21)c1ccccc1 (centres undefined),,inactive: 9.95%
C=CCOc1ccc2ccccc2c1CNCCCN1CCOCC1,"inconclusive: 29.1 µM [inhibitor, single point]",
N#CC1=C2SCC(O)(c3ccccc3)N2C(=O)CC1c1ccccc1 (centres undefined),active: 1.3 µM,
O=C(NC(c1ccc(Cl)cc1)c1ccsc1)C1CCN(CCOc2ccc(Cl)cc2)CC1 (centres undefined),"inconclusive: 23.1 µM [inhibitor, single point]",
CSc1ccccc1OCc1cc(C(=O)N2CCN(c3ccccc3)CC2C)no1 (centres undefined),"inconclusive: 29.1 µM [inhibitor, single point]",
CCOc1ccc2[nH]c(=O)c(C(c3nnnn3C3CCCCC3)N3CCN(C)CC3)cc2c1 (centres undefined),"inconclusive: 29.1 µM [inhibitor, single point]",
O=C(C[C@H]1C[C@@H]2c3cc(NC(=O)Nc4ccccc4F)ccc3O[C@@H]2[C@H](CO)O1)NCc1ccccn1,"inconclusive: 29.1 µM [inhibitor, single point]",
Cc1cc(C(=O)NCCc2ccc(S(=O)(=O)NC(=O)NN3CCCCCC3)cc2)no1,"inconclusive: 29.9 µM [inhibitor, single point]",
COc1ccc(OC)c(CCNC(=O)c2ccc(NC3=NC4CS(=O)(=O)CC4S3)cc2)c1 (centres undefined),,inactive: 0.518%
Cc1cc2ccccn2c1C(=O)c1ccc(S(=O)(=O)N(C)C)cc1,active: 18.4 µM,
Cc1ccc(Cl)c(NC(=O)Nc2csc3c2CCCC3)c1,"inconclusive: 11.6 µM [inhibitor, partial curve]",

SMILES,Potency,"activity change, negative = growth inhibition"
O=C(NC(=S)Nc1ccc(Cc2ccncc2)cc1)c1ccccc1Cl,"inconclusive: 29.1 µM [inhibitor, single point]",
COc1ccccc1OCCNc1cc(N2CCOCC2)ccc1[N+](=O)[O-],"inconclusive: 16.4 µM [inhibitor, partial curve, poor fit]",
COCCN(CC(=O)Nc1cccc(C)c1C)C(=O)c1cc2ccccc2cc1OC,"inconclusive: 0.461 µM [inhibitor, full curve, poor fit]",
CCOc1ccc(NC(=O)CSc2nnc(Cc3csc(C)n3)o2)cc1,,inactive: -0.566%
O=C(COC(=O)Cn1nnc(-c2ccccc2)n1)Nc1cc(F)ccc1F,,inactive: 1.48%
Cc1cc(Cl)ccc1Oc1nccc(N(C)C)c1C#N,"inconclusive: 20.6 µM [inhibitor, single point]",
CCN(c1ccccc1)S(=O)(=O)c1cccc(C(=O)NCC(c2ccco2)N2CCCC2)c1 (centres undefined),"inconclusive: 23.1 µM [inhibitor, single point]",
COc1ccc(/C=N/NC(=O)c2cccc([N+](=O)[O-])c2)cc1OC,,inactive: -9.7%
CN1C(=O)c2ccccc2Sc2ccc(NC(=O)COc3ccccc3)cc21,active: 4.11 µM,
COc1cc2oc(=O)c(CC(=O)N3CCCCC3)c(C)c2cc1OC,,inactive: -18%
CCOc1ccc(-c2nc(N)ncc2Oc2ccccc2Br)c(O)c1,"inconclusive: 29.1 µM [inhibitor, single point]",
CCOC(=O)c1nc(N2CCN(c3ccc(F)cc3)CC2)c2c(C)noc2n1,,inactive: -23.3%
COc1ccc(/C=N/N(C)C2=NS(=O)(=O)c3ccccc32)cc1,,inactive: 9.01%
O=[N+]([O-])c1ccccc1S(=O)(=O)Nc1ccc2c(c1)OCCO2,,inconclusive: -30.7% [inhibitor]
Cc1ccc(/C=N/NC(=O)c2nnn(-c3nonc3N)c2CSc2ccccc2)o1,,inactive: 5.42%
COc1ccc(OC)c(C(=O)c2ccc(C(=O)O)cc2)c1,,inactive: -7.43%
CCOc1c2ccc(C(=O)NCc3ccc4c(c3)OCO4)cc2nn1CC,,inactive: -8.69%
Cc1ccc(N(Cc2cc3ccccc3[nH]c2=O)C(=O)c2ccco2)c(C)c1,"inconclusive: 20.6 µM [inhibitor, single point]",
CN(Cc1nccn1C)C(=O)C1CCC(=O)N(CCc2ccc(Cl)cc2)C1 (centres undefined),,inactive: 2.58%
COc1cccc(C(=O)Nc2ccc(-c3nc4ccccc4s3)cc2Cl)c1,"inconclusive: 16.4 µM [inhibitor, single point]",
Cc1ccccc1OCC(=O)N/N=C1\CCOc2c(C)cccc21,"inconclusive: 7.94 µM [inhibitor, partial curve, poor fit]",
CCn1c(=O)n(-c2ccc(F)c(Cl)c2)c(=O)c2c3c(sc21)CN(C(C)=O)CC3,"inconclusive: 29.1 µM [inhibitor, single point]",
Cc1ccc(C)c(-n2c(-c3csc(C)c3C)n[nH]c2=S)c1,,inactive: 3.27%
